Data on 27 molecules can be found in the supplement of paper PMC9046079.

SMILES strings stand for the structures. Structures can show the parent of a compound that is named as a salt. ± gives the standard deviation of the averaged measurements. The list shows a part of the results.

In this test the test system is murine small intestinal organoids (ENR+CD Paneth differentiation). Description: carbachol-stimulated secreted lysozyme activity relative to plate median (log10 fold change); higher = more Paneth cell lysozyme secretion. As to conditions: 10 µM; 6 d; carbachol 10 µM.
Turning to `O=C(/C=C/n1cnc(-c2cc(C(F)(F)F)cc(C(F)(F)F)c2)n1)N1CC(F)(F)C1`, the “carbachol-stimulated secreted lysozyme activity (log10)” value was -0.462 ± 0.015.

Regarding `Cn1cc(/C=C2\C(=O)Nc3cccnc32)c2ccccc21`, the “carbachol-stimulated secreted lysozyme activity (log10)” value is 0.0988 ± 0.076.

As to `N#CC1(c2ccc(NC(=O)c3cccnc3NCc3ccncc3)cc2)CCCC1` [Apatinib], the “carbachol-stimulated secreted lysozyme activity (log10)” value amounted to 0.148 ± 0.22.

For the molecule `NC(=O)c1cccc(-c2cccc(OC(=O)NC3CCCCC3)c2)c1`, the “carbachol-stimulated secreted lysozyme activity (log10)” value is -0.129 ± 0.19.

Regarding `COc1ccc(COc2ccc(Cc3cnc(N)nc3N)cc2OC)cc1`, the “carbachol-stimulated secreted lysozyme activity (log10)” value turned out to be 0.00351 ± 0.038.

As for `Cc1ccc(S(=O)(=O)OCC(=O)Nc2ccc(C(=O)O)c(O)c2)cc1`, the “carbachol-stimulated secreted lysozyme activity (log10)” value worked out at 0.0453 ± 0.2.

Take `CCN(c1cc(-c2ccc(CN3CCOCC3)cc2)cc(C(=O)NCc2c(C)cc(C)[nH]c2=O)c1C)C1CCOCC1`: the “carbachol-stimulated secreted lysozyme activity (log10)” value was -0.166 ± 0.067.

For the molecule `NC(=O)Nc1cc(-c2cccc(F)c2)sc1C(=O)N[C@H]1CCCNC1`, the “carbachol-stimulated secreted lysozyme activity (log10)” value is -0.425 ± 0.013.

`COc1ccc(CNCc2cccc3ccccc23)cc1`: the “carbachol-stimulated secreted lysozyme activity (log10)” value amounted to 0.0256 ± 0.019.

Consider `CC(C)CCNC(=O)[C@H](CC(C)C)NC(=O)[C@H]1O[C@@H]1C(=O)O` [Loxistatin Acid (E-64C)], for which the “carbachol-stimulated secreted lysozyme activity (log10)” value was -0.00288 ± 0.065.

For the molecule `O=C(O)c1cccc(-c2noc(-c3ccccc3F)n2)c1` [Ataluren (PTC124)], the “carbachol-stimulated secreted lysozyme activity (log10)” value worked out at 0.0328 ± 0.062.

As for `CN(Cc1cnc2nc(N)nc(N)c2n1)c1ccc(C(=O)N[C@@H](CCC(=O)O)C(=O)O)cc1` [Methotrexate], the “carbachol-stimulated secreted lysozyme activity (log10)” value was -0.227 ± 0.093.

`CN1C2CCCC1CC(NC(=O)c1nn(C)c3ccccc13)C2` (configuration not stated) [Granisetron HCl]: the “carbachol-stimulated secreted lysozyme activity (log10)” value is -0.206 ± 0.013.

For the molecule `COc1cc(Br)c(Nc2nc(-c3c(C)nc4ncccn34)cs2)c(Br)c1`, the “carbachol-stimulated secreted lysozyme activity (log10)” value was -0.148 ± 0.33.

Regarding `CN[C@@H](C)C(=O)N[C@H](C(=O)N1CCC[C@H]1C(=O)Nc1snnc1-c1ccccc1)C1CCCCC1`, the “carbachol-stimulated secreted lysozyme activity (log10)” value is -0.0221 ± 0.053.

For the molecule `O=C1CC(=O)c2c(Cl)c(Cl)c(Cl)c(Cl)c21`, the “carbachol-stimulated secreted lysozyme activity (log10)” value was -0.1 ± 0.064.

With `COc1cc2c(cc1Cc1cccc(Cl)c1F)c(=O)c(C(=O)O)cn2[C@H](CO)C(C)C` [Elvitegravir (GS-9137, JTK-303)], the “carbachol-stimulated secreted lysozyme activity (log10)” value is -0.249 ± 0.0084.

For the molecule `O=[N+]([O-])c1ccc2c(c1)S(=O)(=O)C=C2` [Stattic], the “carbachol-stimulated secreted lysozyme activity (log10)” value is 0.00153 ± 0.086.

On to `CC(C)(C)c1cc(/C=C(\C#N)C(N)=S)cc(C(C)(C)C)c1O` [Tyrphostin AG 879], for which the “carbachol-stimulated secreted lysozyme activity (log10)” value is -0.00169 ± 0.12.

Take `CN1CCC[C@@H]1CCO[C@](C)(c1ccccc1)c1ccc(Cl)cc1` [Clemastine Fumarate]: the “carbachol-stimulated secreted lysozyme activity (log10)” value turned out to be 0.023 ± 0.2.

As for `NC(=O)c1ncn([C@@H]2O[C@H](CO)[C@@H](O)[C@H]2O)c1N` [Acadesine], the “carbachol-stimulated secreted lysozyme activity (log10)” value was -0.122 ± 0.07.

With `O=C(O)Cc1cccc(OCCCN(Cc2cccc(C(F)(F)F)c2Cl)CC(c2ccccc2)c2ccccc2)c1`, the “carbachol-stimulated secreted lysozyme activity (log10)” value is -0.0136 ± 0.086.

Turning to `CNC(=C[N+](=O)[O-])NCCSCc1ccc(CN(C)C)o1` [Ranitidine], the “carbachol-stimulated secreted lysozyme activity (log10)” value was -0.0862 ± 0.028.

In the case of `O=C(NOC[C@H](O)CO)c1ccc(F)c(F)c1Nc1ccc(I)cc1F`, the “carbachol-stimulated secreted lysozyme activity (log10)” value is -0.325 ± 0.06.

Take `COc1ccc2cccc(CCNC(C)=O)c2c1` [Agomelatine]: the “carbachol-stimulated secreted lysozyme activity (log10)” value came out at 0.0287 ± 0.14.

For the molecule `CNC(=O)c1cc(Oc2ccc(NC(=O)Nc3cc(C(C)(C)C)nn3-c3ccc4ncccc4c3)c(F)c2)ccn1` [DCC-2036 (Rebastinib)], the “carbachol-stimulated secreted lysozyme activity (log10)” value was -0.283 ± 0.066.

Take `CCN(CC)CC(=O)Nc1c(C)cccc1C` [Lidocaine]: the “carbachol-stimulated secreted lysozyme activity (log10)” value was -0.0239 ± 0.011.
